The values below come from ChEMBL document CHEMBL1156829.

In all, about 5,400 compounds were measured (“IFI”: median about 2, highest 2% from about 22 on). The list shows a part of the results.

This assay is described as follows: NOVARTIS: Inhibition Frequency Index (IFI) - the number of HTS assays where a compound showed > 50% inhibition/induction, expressed as a percentage of the number of assays in which the compound was tested. Format: functional.
In turn, `Cc1ccccc1Cc1c(C)nc2c(C#N)c(C)nn2c1C` had an IFI of 0%. As to `CCCCOc1ccc(-c2nnc(-c3ccc(C)cc3)n2-c2ccccc2)cc1`, the IFI is 1.61%. Consider `CCCCCCn1c2c(c(=N)c3c1CCC3)CCCC2`, for which the IFI amounted to 14.3%.

`CCN(CC)Cc1ccc2c(NC(=O)c3ccc(C)s3)c(C(=O)OC)sc2n1` showed an IFI of 0.862%. On to `COc1c(N2CCN(Cc3c(C)cc(C)cc3C)CC2)c2nc3oc2c2c(OC(=O)C(C)(C)C)c(C)c4c(c12)[C@@H](O)[C@@](C)(OC=C[C@H](OC)[C@@H](C)[C@@H](OC(C)=O)C(C)[C@H](O)[C@H](C)[C@@H](O)C(C)C=CC=C3C)O4` (stereo not given in full), for which the IFI is 2.13%. `COc1cc(C(=O)N2C(C(=O)Nc3ccccc3F)CSC2c2ccc(C(C)(C)C)cc2)cc(OC)c1OC` (stereo not given) showed an IFI of 1.05%. The value for `O=C(O)c1cccc(NC(=O)c2ccc(N3C(=O)c4ccc(C(=O)Nc5cccc(C(=O)O)c5)cc4C3=O)cc2)c1` was 0%.

Take `CCOC(=O)c1c(CC)nc(-c2ccccc2)nc1C(=O)N1CCC(C)CC1`: the IFI was 2.25%. Compound `COc1ccc(Nc2nc(NN=Cc3cccc(Cl)c3)nc(Nc3ccc([N+](=O)[O-])cc3)n2)cc1` gave an IFI of 3.95%. For `CCCCCN(C(=O)COc1ccc(Cl)cc1)C(CC)c1nc2ccccc2c(=O)n1-c1cccc(Cl)c1` (stereo not given), the IFI was 2.86%.

For the compound `CCC(c1nc2ccccc2c(=O)n1-c1cccc(Cl)c1)N(CCC(C)C)C(=O)COCc1ccccc1` (stereo not given), the IFI turned out to be 0.909%.

As to `CCOc1ccc(CN2CCN(CC(O)COc3ccc(OCC(O)CN4CCN(Cc5ccc(OCC)cc5)CC4)cc3)CC2)cc1` (stereo not given), the IFI came out at 7.14%.

In turn, `CCc1ccc(CSc2nc3cc(OC)c(OC)cc3c(=N)n2CCc2ccccc2)cc1` returned an IFI of 2.6%. For `O=[N+]([O-])c1ccc(-c2nc3ccccc3n2-c2cc(-c3ccccc3)nn2-c2ccccc2)cc1` the value was 0%. For `C[n+]1ccccc1/C=C/c1ccc(Br)cc1` the value was 4.25%; for `Clc1ccc(NCn2nnc3ccccc32)nc1`, 1.59%. The value for `CCOC(=O)c1cnc2c(OC)cccc2c1Nc1cccc(C(F)(F)F)c1` was 0%; that for `NC(=NOC(=O)c1ccccc1I)c1ccccn1` was 0%. The compound `COc1ccc(OC)c(NC(=O)COc2cc3ccccc3cc2C(=O)Nc2cc(OC)c(Cl)cc2OC)c1` had an IFI of 0%. The value for `Cc1c2c(cc3c1ccc1ccccc13)C[N+]1(CCCCC1)C2` was 1.51%; that for `Cc1ccc2nc(Cl)c3cc(C(=O)Nc4ccc(CN5CCC(C)CC5)cc4)sc3c2c1` was 8.11%. `Cc1ccc(S(=O)(=O)N=C(NS(=O)(=O)c2ccc(C)cc2)c2ccccc2)cc1` yielded an IFI of 0%.

As to `CC(C)(C)c1ccc2[nH]c3c(c2c1)CCCC3=NO`, the IFI came to 3.17%. Turning to `Cc1cc(NCCCN(C)C)c2ccccc2n1`, the IFI turned out to be 7.69%.

With `Cc1cc(Nc2cc(Cl)cc(Cl)c2)n2nc(C)nc2n1`, the IFI is 0%. For `COc1cccc(-c2nc3c(OC)ccc(OC)c3cc2CNCC(C)(C)CN(C)C)c1` the value was 2.61%. `Cc1nc(C23CC4CC(CC(C4)C2)C3)cs1` displayed an IFI of 2.02%.

Consider `C=CCNC(=O)c1ccc2c(c1)N=C(CC(C)c1ccccc1)N(CC1CCCCC1)C2` (stereo not given), for which the IFI was 2.5%. In turn, `CN1/C(=C/c2cccc[n+]2C)C=Cc2ccccc21` yielded an IFI of 8.33%. The value for `c1ccc2cc3c(Nc4ccc(N5CCCCC5)cc4)ccnc3cc2c1` was 7.14%; that for `CC(C)N(CC(=O)Nc1cc(C(C)(C)C)nn1-c1ccc(Cl)c(Cl)c1)C(=O)c1ccc(C(C)(C)C)cc1` was 2.91%. Take `Fc1ccc(-n2cc(-c3ccccc3)[n+]3c2SCC3)cc1`: the IFI turned out to be 0%. For `Oc1ccc(-c2cncc(NCc3cccc(O)c3)c2)cc1` the value was 4.71%.

With `COc1ccc(N(CC(=O)Nc2cc(OC)ccc2OC)S(=O)(=O)c2ccc(C)cc2)cc1`, the IFI came out at 0%. The compound `CN(C)CCNC(=O)c1ccc(-c2cccc3c2sc2ccccc23)nc1N1CCN(CCO)CC1` showed an IFI of 11.3%.

In turn, `N#Cc1c(NC(=O)COc2ccc(F)cc2F)sc2c1CCC2` returned an IFI of 0%. `CC(=O)Nc1ccccc1-c1nnn(CC(N)=O)n1` gave an IFI of 0%. `CCOC(=O)c1[nH]c(CSC#N)c(C(C)=O)c1C` registered an IFI of 0%. `O=C(Nc1ccc(-n2cccn2)cc1)C1CCN(Cc2nc3c(s2)CCCC3)CC1`: the IFI came out at 0%. Regarding `COC(=O)C1=CNC=C(C(=O)OC)C1c1cc(Br)ccc1OC`, the IFI came out at 6.25%. For `CCOC(=O)C1=C(C)NC2=C(C(=O)CC(C)(C)C2)C1c1cc(I)sc1SC` (stereo not given) the value was 1.46%; for `Cc1ccc(-c2cc(-c3cc(Cl)ccc3O)on2)cc1`, 0%; for `O=C(CCl)Nc1ccc(N2CCCCC2)cc1`, 7.69%.

Regarding `COc1ccc(CNCc2cc3c(-c4ccc(C)cc4)nn(-c4ccccc4)c3[nH]c2=O)cc1`, the IFI came out at 8.11%. `CCc1nc2nc(C)cc(Nc3ccc4c(c3)OCCO4)n2n1` came in with an IFI of 0%. `C=CC[n+]1cccc2c3ccccc3ccc21` registered an IFI of 11.1%. For `N#Cc1cc2[nH]c3ccccc3c2n(-c2ccc([N+](=O)[O-])cc2)c1=N` the value was 1.59%; for `Cc1ccc(C)c(NC(=O)c2c(-c3c(Cl)cccc3Cl)noc2C)c1`, 4.6%. The compound `CN1C=C(c2ccc3ccccc3n2)C(c2c[nH]c3ccccc23)c2ccccc21` (stereo not given) had an IFI of 6.57%. `CN1CCN=C1c1ccc(NC(=O)Nc2ccc(NC(=O)Nc3ccc(C4=NCCN4C)cc3)cc2)cc1` registered an IFI of 0.893%. The value for `O=C(C1=C(O)C(=O)N(CCCn2ccnc2)C1c1ccccc1[N+](=O)[O-])c1ccccc1` (stereo not given) was 0%. The value for `O=C1C2C(C(=O)N1c1ccc(Cl)c(C(F)(F)F)c1)C1(c3ccccc3)C(=O)C2(c2ccccc2)C(c2ccccc2)=C1c1ccccc1` (stereo not given) was 0%. `Cc1ccc(Nc2nc(NN=Cc3ccc(-c4ccc([N+](=O)[O-])cc4)o3)nc(N3CCOCC3)n2)cc1Cl`: the IFI was determined as 4.71%.

Compound `CCCCC(=O)N(CCCC(C)Nc1cc(OC)cc2cccnc12)Cc1ccccc1OC` (stereo not given) displayed an IFI of 5.26%. For `CC(=O)N1CC(=NNC(=O)C(C)Nc2c(C)cccc2C)c2ccccc21` (stereo not given) the value was 0%. `Cc1ccc(O)c(Nc2c3c(c(C#N)c4nc5ccccc5n24)CCC3)c1` returned an IFI of 14.3%. As to `C#CC(C)(C)NC(=O)c1ccc(-c2ccc(CC)cc2)cc1`, the IFI came to 3.1%. The value for `N#Cc1nc(-c2ccccc2)c(-c2ccc(-c3nc(C#N)c(C#N)nc3-c3ccccc3)cc2)nc1C#N` was 7.14%; that for `CC1CCN(c2nncc3ccccc23)CC1` was 0%; that for `CCOc1ccc(Nc2nc(N)c3ccccc3n2)cc1` was 20.6%. Turning to `Cc1ccc(NC(=O)c2cc3ccccc3oc2=O)nc1`, the IFI was 9.2%. For `CCc1c(C#N)c(N)nc2sc(C(=O)c3ccc(Br)cc3)c(N)c12` the value was 0%; for `COc1cc([N+](=O)[O-])ccc1NC(=O)CN1CCN(C(=O)c2ccco2)CC1`, 0%.

Take `CCCCN(CCCC)S(=O)(=O)c1ccc(NC(=O)c2ccco2)cc1`: the IFI was 0%. Take `Cc1onc(-c2ccccc2)c1C(=O)N1CCC(CNc2c(-c3ccc(F)cc3)nc3ccccn23)CC1`: the IFI was 5.56%. Turning to `COC(=O)C1=C(C)NC2=C(C(=O)CC(c3ccccc3Cl)C2)C1c1ccc([N+](=O)[O-])cc1` (stereo not given), the IFI was 5.43%. For `CN(C)/C=C1\Oc2ccccc2N=C1Cl` the value was 2.63%; for `CCCN1CCC(c2nc(N3CCOCC3)ncc2-c2cc(C)no2)CC1`, 0%. Turning to `CCC(=O)NCc1nc2ccccc2n1Cc1ccc(C)cc1`, the IFI stood at 0%. The value for `CCCC[n+]1c(C=C2C=Cc3ccccc3N2CC)sc2ccccc21` was 11.1%; that for `CC1CC(C)(C)NC(=S)N1CCC(=O)NCCc1ccccc1` (stereo not given) was 0%; that for `O=C(CCc1ccccc1)NCCCCNc1ccnc2cc(Cl)ccc12` was 3.77%. `CCCCOc1cccc(NC(=O)CSC2=C(C#N)C(c3ccccc3)C(C(=O)Nc3ccccc3)=C(C)N2)c1` (stereo not given) returned an IFI of 0%. For `CC(C)c1cccc(C(C)C)c1NC(=O)N(Cc1ccccc1)C(C)c1nc2ccccc2c(=O)n1-c1ccccc1` (stereo not given) the value was 1.87%; for `CCC(=O)NC(c1ccccc1Cl)c1cc(Cl)c2cccnc2c1O` (stereo not given), 15.4%; for `O=C1C(=Nc2cccc(C(F)(F)F)c2)c2ccccc2N1CN1CCc2ccccc2C1`, 0%. On to `O=C1NC(=Nc2ccccc2)S/C1=C/c1ccc(F)c(Br)c1`, for which the IFI stood at 2.3%.

Take `Fc1cccc(Nc2nc(NCC3CCCO3)c3ccccc3n2)c1` (stereo not given): the IFI turned out to be 4.54%. For `CC1C(Br)C(=O)C(Br)C(C)C12CCCC2` (stereo not given) the value was 0%. As to `O=C(c1ccc2ccccc2c1)N1CCc2ccccc21`, the IFI came out at 0%. For `Oc1cc(-c2ccccc2)nc2ccccc12` the value was 7.09%; for `Cc1noc(C)c1S(=O)(=O)N(Cc1ccccc1)CC(O)CN1CCC(NC(=O)c2ccccc2Cl)C1` (stereo not given), 1.94%. For `CC(C)c1ccc(-c2cncc(N[C@@H](C)c3ccccc3)n2)cc1` the value was 0%. The value for `COc1ccc(CN(C)C(C)C)cc1OC1CCN(C(=O)C2CCC2)CC1` was 0.98%.

As for `Oc1ccc(-c2ccc3c(c2)OCO3)cc1CNCC1CC2C=CC1C21CC1` (stereo not given), the IFI was determined as 1.71%. As to `CC(C)(C)c1ccc(Oc2ccc(N3C(=O)C4CC=CCC4C3=O)cc2)cc1` (stereo not given), the IFI was 0%. For `COc1ccc(C2=C(c3ccc(OC)cc3)C3(c4ccccc4)C(=O)C2(c2ccccc2)C2C(=O)N(c4ccccc4)C(=O)C23)cc1` (stereo not given) the value was 0%; for `CC(=O)c1ccc(NC(=O)CN(C)S(=O)(=O)c2ccc3[nH]c4c(c3c2)CCCC4)cc1`, 0%. The compound `COc1ccc(-c2cn3c([n+]2-c2ccccc2)SCC3)cc1` showed an IFI of 2.73%. Compound `CCN(CC)CCNC(=O)c1cc(-c2cc3ccccc3s2)cc(-n2cnnn2)c1` showed an IFI of 4.24%.

On to `Cc1ccc(C[n+]2cc(-c3ccc(F)cc3)n3c2CCC3)cc1`, for which the IFI is 2.38%. On to `CC[n+]1c(/C=C2\Sc3cc(C)ccc3N2CCO)ccc2ccccc21`, for which the IFI is 15.4%. For `COC(C(=NO)c1ccc(Cl)cc1)c1ccccc1` (stereo not given) the value was 0%; for `COc1cc(C=NNC(=O)c2cccc3ccccc23)ccc1OCC(N)=O`, 0%. Turning to `CCCCCN(CCCCC)C(O)c1cc2c(c3ccccc13)CCCC2` (stereo not given), the IFI was found to be 1.82%. In turn, `Oc1ccc(-c2nc3ccccc3s2)cc1CN1CCCCC1` showed an IFI of 12%.

In turn, `CCCN(CCC)CCNC(=O)c1cc2c(-c3ccc(Cl)cc3)nn(C)c2s1` displayed an IFI of 0%.

Consider `N#Cc1cc(C#N)c(N2CCN(c3cccc(Cl)n3)CC2)nc1N`, for which the IFI was determined as 6.58%.

Consider `CCc1ccccc1NC(C)=O`, for which the IFI was found to be 1.04%. Compound `CC(C)(C)c1csc(NC(=O)c2ccc(S(=O)(=O)N3CCCCC3)cc2)n1` showed an IFI of 3.37%.
